The record followed here is patent US20080280910A1, “PHTHALAZINONE DERIVATIVES” (priority 2007, published 2008).

The target in the assay is Mammalian PARP, isolated from Hela cell nuclear extract (Homo sapiens, UniProt P09874). In words: PARP inhibition assay (FlashPlate, 3H-NAD incorporation) to determine IC50. Conditions: mean IC50. It counts as biochemical. How it is done: In order to assess the inhibitory action of the compounds, the following assay was used to determine IC50 values (Dillon, et al., JBS., 8(3), 347-352 (2003)).
All compounds were diluted in DMSO and gave final assay concentrations of between 10 and 0.01 μM, with the DMSO being at a final concentration of 1% per well. The total assay volume per well was 40 μL.
After 10 minutes incubation at 30° C. the reactions were initiated by the addition of a 10 μl reaction mixture, containing NAD (5 μM), ^3H-NAD and 30mer double stranded DNA-oligos. Designated positive and negative reaction wells were done in combination with compound wells (unknowns) in order to calculate % enzyme activities. The plates were then shaken for 2 minutes and incubated at 30° C. for 45 minutes.
Following the incubation, the reactions were quenched by the addition of 50 μl 30% acetic acid to each well. The plates were then shaken for 1 hour at room temperature.
The plates were transferred to a TopCount NXT (TRADE MARK) (Packard, UK) for scintillation counting. Values recorded are counts per minute (cpm) following a 30 second counting of each well.
The % enzyme activity for each compound is then calculated using the following equation: […]
IC50 values (the concentration at which 50% of the enzyme activity is inhibited) were calculated, which are determined over a range of different concentrations, normally from 10 μM down to 0.001 μM. Such IC50 values are used as comparative values to identify increased compound potencies.
With `COC(=O)c1ccccc1-c1cccc(Cc2n[nH]c(=O)c3ccccc23)c1` [Compound 9], the IC50 is 914 nM.
In the case of `COC(=O)c1ccc(-c2cccc(Cc3n[nH]c(=O)c4ccccc34)c2)cc1` [Compound 10] it was 261 nM; in that of `O=c1[nH]nc(Cc2cccc(-c3ccccn3)c2)c2ccccc12` [Compound 17], 196 nM.
In the case of `O=Cc1ccc(-c2cccc(Cc3n[nH]c(=O)c4ccccc34)c2)cc1` [Compound 21] it was 196 nM; in that of `CC(=O)Nc1cccc(-c2cccc(Cc3n[nH]c(=O)c4ccccc34)c2)c1` [Compound 23], 18 nM; in that of `O=c1[nH]nc(Cc2cccc(-c3ccsc3)c2)c2ccccc12` [Compound 24], 105 nM.
As for `O=c1[nH]nc(Cc2cccc(-c3ccco3)c2)c2ccccc12` [Compound 28], the IC50 amounted to 39 nM.
`CC(=O)c1cccc(-c2cccc(Cc3n[nH]c(=O)c4ccccc34)c2)c1` [Compound 34]: the IC50 is 284 nM.
In the case of `O=Cc1ccccc1-c1cccc(Cc2n[nH]c(=O)c3ccccc23)c1` [Compound 39] it was 201 nM; in that of `O=c1[nH]nc(Cc2cccc(-c3ccc(Cl)cc3)c2)c2ccccc12` [Compound 40], 297 nM.
Regarding `O=c1[nH]nc(Cc2cccc(-c3cccc(CO)c3)c2)c2ccccc12` [Compound 42], the concentration for half-maximal inhibition (IC50) stood at 60 nM.
On to `CC(=O)Nc1ccc(-c2cccc(Cc3n[nH]c(=O)c4ccccc34)c2)cc1` [Compound 43], for which the IC50 was 65 nM.
Consider `O=c1[nH]nc(Cc2ccc(F)c(-c3ccsc3)c2)c2ccccc12` [Compound 49], for which the IC50 stood at 41 nM.
`O=c1[nH]nc(Cc2ccc(F)c(-c3cccc(CO)c3)c2)c2ccccc12` [Compound 51]: the half-maximal inhibitory concentration (IC50) amounted to 29 nM.
In the case of `CC(=O)Nc1ccc(-c2cc(Cc3n[nH]c(=O)c4ccccc34)ccc2F)cc1` [Compound 52] it was 75 nM.
In the case of `O=c1[nH]nc(Cc2ccc(F)c(-c3ccco3)c2)c2ccccc12` [Compound 53] it was 14 nM.
Turning to `O=c1[nH]nc(Cc2ccc(F)c(-c3ccc(F)cc3)c2)c2ccccc12` [Compound 54], the IC50 was 89 nM.
In the case of `N#Cc1cccc(-c2cc(Cc3n[nH]c(=O)c4ccccc34)ccc2F)c1` [Compound 55] it was 279 nM.
In the case of `O=c1[nH]nc(Cc2ccc(F)c(-c3ccccc3Cl)c2)c2ccccc12` [Compound 56] it was 218 nM; in that of `O=c1[nH]nc(Cc2ccc(F)c(-c3ccccc3)c2)c2ccccc12` [Compound 59], 85 nM.
On to `O=c1[nH]nc(Cc2ccc(F)c(-c3ccc4[nH]ccc4c3)c2)c2ccccc12` [Compound 61], for which the IC50 was 300 nM.
As to `COc1ccc(-c2cc(Cc3n[nH]c(=O)c4ccccc34)ccc2F)cc1` [Compound 64], the IC50 was 114 nM.
In the case of `NC(=O)c1ccccc1-c1cc(Cc2n[nH]c(=O)c3ccccc23)ccc1F` [Compound 65] it was 904 nM; in that of `Nc1ccc(-c2cc(Cc3n[nH]c(=O)c4ccccc34)ccc2F)cc1` [Compound 66], 38 nM.
On to `O=c1[nH]nc(Cc2ccc(F)c(-c3cccc(OCc4ccccc4)c3)c2)c2ccccc12` [Compound 68], for which the IC50 worked out at 489 nM.
In the case of `O=Cc1ccc(-c2cc(Cc3n[nH]c(=O)c4ccccc34)ccc2F)c2ccccc12` [Compound 69] it was 720 nM; in that of `COC(=O)/C=C/c1ccc(-c2cc(Cc3n[nH]c(=O)c4ccccc34)ccc2F)cc1` [Compound 70], 175 nM.
In the case of `O=c1[nH]nc(Cc2ccc(F)c(-c3ccc4c(c3)OCCO4)c2)c2ccccc12` [Compound 71] it was 64 nM.
In the case of `O=c1[nH]nc(Cc2ccc(F)c(-c3cccc4c3CCO4)c2)c2ccccc12` [Compound 72] it was 62 nM; in that of `NC(=O)c1cccc(-c2cc(Cc3n[nH]c(=O)c4ccccc34)ccc2F)c1` [Compound 74], 287 nM.
For the compound `O=c1[nH]nc(Cc2ccc(F)c(-c3cccc4cnccc34)c2)c2ccccc12` [Compound 75], the IC50 was 412 nM.
On to `CSc1cccc(-c2cc(Cc3n[nH]c(=O)c4ccccc34)ccc2F)c1` [Compound 78], for which the half-inhibitory concentration (IC50) came out at 511 nM.
Turning to `CSc1ccc(-c2cc(Cc3n[nH]c(=O)c4ccccc34)ccc2F)cc1` [Compound 79], the IC50 turned out to be 149 nM.
Take `O=c1[nH]nc(Cc2ccc(F)c(-c3cccc(Cl)c3)c2)c2ccccc12` [Compound 83]: the IC50 is 316 nM.
On to `COCc1ccc(-c2cc(Cc3n[nH]c(=O)c4ccccc34)ccc2F)cc1` [Compound 87], for which the IC50 was 275 nM.
In the case of `O=c1[nH]nc(Cc2ccc(F)c(-c3ccc4c(c3)OCCCO4)c2)c2ccccc12` [Compound 88] it was 67 nM; in that of `COc1ccc(-c2cc(Cc3n[nH]c(=O)c4ccccc34)ccc2F)cc1F` [Compound 89], 338 nM; in that of `COc1ccccc1-c1cc(Cc2n[nH]c(=O)c3ccccc23)ccc1F` [Compound 90], 389 nM.
In the case of `COc1cccc(-c2cc(Cc3n[nH]c(=O)c4ccccc34)ccc2F)c1` [Compound 91] it was 61 nM; in that of `CC(=O)Nc1ccccc1-c1cc(Cc2n[nH]c(=O)c3ccccc23)ccc1F` [Compound 92], 1300 nM; in that of `Cc1cccc(-c2cc(Cc3n[nH]c(=O)c4ccccc34)ccc2F)c1C` [Compound 93], 1130 nM.
Consider `O=c1[nH]nc(Cc2cccc(-c3ccsc3)c2)c2c(F)ccc(F)c12` [Compound 103], for which the IC50 came to 403 nM.
In the case of `O=c1[nH]nc(Cc2cccc(-c3ccc(F)cc3)c2)c2c(F)ccc(F)c12` [Compound 105] it was 452 nM.
In the case of `CC(=O)c1cccc(-c2cncc(Cc3n[nH]c(=O)c4ccccc34)c2)c1` [Compound 106] it was 751 nM; in that of `O=c1[nH]nc(Cc2cncc(-c3cccc(CO)c3)c2)c2ccccc12` [Compound 107], 198 nM; in that of `Nc1cccc(-c2cncc(Cc3n[nH]c(=O)c4ccccc34)c2)c1` [Compound 109], 174 nM.
Regarding `O=c1[nH]nc(Cc2cncc(-c3ccc4c(c3)OCCO4)c2)c2ccccc12` [Compound 110], the IC50 amounted to 481 nM.
`CC1CCN(C(=O)c2cccc(-c3cncc(Cc4n[nH]c(=O)c5ccccc45)c3)c2)CC1` [Compound 112]: the IC50 turned out to be 1200 nM.
In the case of `O=C(c1cccc(-c2cncc(Cc3n[nH]c(=O)c4ccccc34)c2)c1)N1CCSCC1` [Compound 113], the half-inhibitory concentration (IC50) was 1260 nM.
In the case of `O=C(c1cccc(-c2cncc(Cc3n[nH]c(=O)c4ccccc34)c2)c1)N1CCCC1` [Compound 114] it was 1330 nM; in that of `O=c1[nH]nc(Cc2cncc(-c3ccoc3)c2)c2ccccc12` [Compound 115], 404 nM.
`O=c1[nH]nc(Cc2cncc(-c3ccco3)c2)c2ccccc12` [Compound 116]: the IC50 worked out at 83 nM.
Regarding `CCN1CCN(C(=O)c2cccc(-c3cc(Cc4n[nH]c(=O)c5ccccc45)ccc3F)c2)CC1` [Compound 117], the 50% inhibitory concentration (IC50) was determined as 1100 nM.
In the case of `O=C(c1cccc(-c2cc(Cc3n[nH]c(=O)c4ccccc34)ccc2F)c1)N1CCN(CCO)CC1` [Compound 118] it was 912 nM; in that of `CN1CCCN(C(=O)c2cccc(-c3cc(Cc4n[nH]c(=O)c5ccccc45)ccc3F)c2)CC1` [Compound 119], 547 nM; in that of `CN1CCN(C(=O)c2cccc(-c3cc(Cc4n[nH]c(=O)c5ccccc45)ccc3F)c2)CC1` [Compound 120], 1020 nM.
In the case of `O=C(c1cccc(-c2cc(Cc3n[nH]c(=O)c4ccccc34)ccc2F)c1)N1CCCN(CCO)CC1` [Compound 122] it was 816 nM; in that of `O=C(c1cccc(-c2cc(Cc3n[nH]c(=O)c4ccccc34)ccc2F)c1)N1CCc2ccccc2C1` [Compound 123], 125 nM; in that of `CN(C)CCNC(=O)c1cccc(-c2cc(Cc3n[nH]c(=O)c4ccccc34)ccc2F)c1` [Compound 124], 353 nM.
In the case of `O=C(NCCN1CCCC1)c1cccc(-c2cc(Cc3n[nH]c(=O)c4ccccc34)ccc2F)c1` [Compound 125] it was 258 nM; in that of `CN(C)CCN(C)C(=O)c1cccc(-c2cc(Cc3n[nH]c(=O)c4ccccc34)ccc2F)c1` [Compound 126], 805 nM.
Regarding `CC(=O)Nc1cccc(-c2cc(Cc3n[nH]c(=O)c4ccccc34)ccc2F)c1` [Compound 127], the concentration for half-maximal inhibition (IC50) is 9 nM.
As for `CN(C)CC(=O)Nc1cccc(-c2cc(Cc3n[nH]c(=O)c4ccccc34)ccc2F)c1` [Compound 128], the IC50 amounted to 79 nM.
For `O=C(Nc1cccc(-c2cc(Cc3n[nH]c(=O)c4ccccc34)ccc2F)c1)c1ccco1` [Compound 129], the IC50 turned out to be 26 nM.
As to `O=C(Nc1cccc(-c2cc(Cc3n[nH]c(=O)c4ccccc34)ccc2F)c1)c1ccccc1` [Compound 130], the IC50 was 33 nM.
In the case of `O=C(Nc1cccc(-c2cc(Cc3n[nH]c(=O)c4ccccc34)ccc2F)c1)c1cnccn1` [Compound 131] it was 104 nM; in that of `Cc1occc1C(=O)Nc1cccc(-c2cc(Cc3n[nH]c(=O)c4ccccc34)ccc2F)c1` [Compound 132], 21 nM; in that of `Cn1nccc1C(=O)Nc1cccc(-c2cc(Cc3n[nH]c(=O)c4ccccc34)ccc2F)c1` [Compound 133], 21 nM.
